Data: PubChem BioAssay AID463173 (ICCB-Longwood Screening Facility, Harvard Medical School, 2010)
The campaign covered roughly 52,000 compounds. About 1,700 (3.3%) were called active. No stated cut-off is given here; in the data, active means survival mostly below about 52% (no sharp cut-off); inactive means mostly above about 56%. The list shows a part of the results.

These molecules were tested on Wild type (assay: S. aureus survival, RN4220 and DeltatarO strains – OD600, teichoic acid synthesis inhibitors, primary screen (AID 463173)). Conditions: S. aureus RN4220 wild type/DeltatarO growth, OD600, 18 h, hits give low values, screened at 18.75 µg/mL (by protocol).

| Compound | survival |
| --- | --- |
| O=C(Nc1ccc(Cl)cc1Cl)c1cc(S(=O)(=O)N2CCCCCC2)ccc1F | inactive: 67% |
| CC(C)(C)OC(=O)N1CC=C2C(C#N)=C(N)C(C#N)(C#N)C(c3ccc4c(c3)OCO4)C2C1 (stereo unspecified) | inactive: 107% |
| CCCCc1nn2c(=O)cc(COC(=O)c3ccccc3NC(=O)c3cccs3)nc2s1 | inactive: 112% |
| CN(C)c1nc(Cl)nc(NCCCC(=O)O)n1 | inactive: 109% |
| CCCOc1ccc(NC(=O)CC2C(=O)N(c3ccc(C)cc3)C(=O)N2CCc2ccncc2)cc1 (stereo unspecified) | inactive: 73% |
| CCN(C(=O)CSc1nnc(Cn2nnc3ccccc32)o1)c1nc(-c2ccccc2)cs1 | inactive: 114% |
| O=C(Cn1ccn(-c2ccc(F)cc2)c(=O)c1=O)Nc1ccccc1C(F)(F)F | inactive: 82% |
| Cc1oc(-c2ccc(C(=O)NCCN(C)C)cc2)nc1CS(=O)(=O)c1ccccc1 | inactive: 72% |
| O=C(Cn1nc(-c2ccccc2)nc(Cc2ccccc2)c1=O)Nc1ccc(Cl)cc1 | inactive: 69% |
| Cc1cccc(NC(=O)Cn2nnc(C(=O)NCc3ccco3)c2N)c1 | inactive: 125% |
| CC(C)Cn1c(C2CC(=O)N(c3ccccc3Cl)C2)nc2ccccc21 (stereo unspecified) | inactive: 97% |
| Cc1cccc(-n2c(N)cc(=O)nc2SCC(=O)Nc2ccc(F)cc2)c1C | inactive: 86% |
| COc1ccc(Br)cc1C(=O)Nc1ccc(-c2nc3ncccc3o2)cc1C | inactive: 72% |
| Cc1ccc(S(=O)(=O)Cn2nnnc2CN(Cc2ccco2)Cc2cccs2)cc1 | inactive: 112% |
| CCc1ccc(NC(=O)CSc2ccc3nc(-c4ccc(OC)cc4)cn3n2)cc1 | inactive: 65% |
| Cc1ccc(C(=O)NCC(=O)OCc2cc(=O)n3ccsc3n2)cc1 | inactive: 64% |
| CC(C)(C)C(=O)CSc1nnc(-c2ccccc2)o1 | inactive: 105% |
| CCN(CC)S(=O)(=O)c1ccc2c(c1)N(CC(=O)Nc1ccc(OC)cc1)C(=O)CS2 | inactive: 102% |
| Cc1ccccc1CNC(=O)c1oc2c(c1C)-c1nn(Cc3ccc(Cl)cc3)cc1CC2 | inactive: 80% |
| COc1nc(OC)nc(N2CCC(C(=O)NCC3CCCCC3)CC2)n1 | inactive: 103% |
| Clc1nc(Cl)nc(NNc2nc(Cl)nc(Cl)n2)n1 | inactive: 106% |
| CCOC(=O)CNc1c(-c2ccc(OC)cc2)nc2ccc(Cl)cn12 | inactive: 115% |
| COC(=O)CSc1nc2sc3c(c2c(=O)n1-c1ccc(C)cc1)CC(C(C)C)OC3 (stereo unspecified) | inactive: 78% |

| Compound | survival |
| --- | --- |
| CCOc1ccc(NC(=O)C2CCCN(c3cnccn3)C2)cc1 (stereo unspecified) | inactive: 87% |
| CCOc1ccc(Cl)cc1CNCCCSc1nnnn1C | inactive: 88% |
| Cc1ccc(NC(=O)CN2C(=O)C(C)(C)Oc3ccc(C(=O)N4CCCC4)cc32)cc1 | inactive: 103% |
| Cc1ccc(Nc2nc(C(=O)NCC3CCCO3)cs2)cc1 (stereo unspecified) | inactive: 105% |
| COC(=O)c1ccccc1NC(=O)c1cnn(-c2ccc(F)cc2)c1-n1cccc1 | inactive: 87% |
| Cc1ccc(CN(C(=O)COc2ccccc2[N+](=O)[O-])c2ccccn2)cc1 | inactive: 78% |
| NCCCNC(=O)c1ccco1 | inactive: 115% |
| CCC(CC)C(=O)Nc1nnc(S(=O)(=O)N2CCc3ccccc32)s1 | inactive: 81% |
| Cc1cccc(OCC(=O)NCCc2nc3ccccc3[nH]2)c1C | inactive: 73% |
| O=C(NCc1ccccc1Cl)C1CCN(C(=O)N2CCOc3ccccc32)CC1 | inactive: 83% |
| CCCN(CCC)CCNC(=O)CN1C(=O)COc2ccc(S(=O)(=O)N3CCOCC3)cc21 | inactive: 77% |
| CCOc1ccc(-n2nc(CO)c(C(=O)NCc3ccccn3)n2)cc1 | inactive: 90% |
| Cc1ccc(OCCCCn2cnc3ccccc32)cc1 | active: 29% |
| CCN(CC)S(=O)(=O)c1ccc2c(c1)nc(CN(C)C(=O)Nc1ccc(F)cc1)n2C | inactive: 89% |
| CS(=O)(=O)c1ccccc1-c1nnc(NC(=O)c2ccc3c(c2)OCCO3)o1 | active: -6% |
| COc1ccc(CNC(=O)CSc2n[nH]c(-c3ccc(F)cc3)n2)cc1 | inactive: 120% |
| O=C(Nc1nc2n(n1)C(c1ccccc1)C=C(c1ccccc1)N2)c1ccccc1 (stereo unspecified) | inactive: 88% |
| COc1cc(Cl)c(C)cc1NC(=O)CCc1c(C)nc2c3cccnc3nn2c1C | inactive: 85% |
| O=C(Nc1ccc(C(=O)N2CCCCC2)cc1)c1nsc2ccccc12 | inactive: 59% |
| COc1ccc(CNC(=O)CN(c2ccc(C)cc2)S(=O)(=O)c2c(C)noc2C)cc1 | inactive: 83% |
| COc1ccc(CNC(=O)C(CCSC)NS(=O)(=O)c2ccc3c(c2)oc(=O)n3C)cc1 (stereo unspecified) | inactive: 73% |
| Fc1ccc(Nc2nc(SCc3cccc(Cl)c3)nc3ccccc23)cc1 | inactive: 79% |
| Cc1ccc(C)c(CN2C(=O)c3ccccc3S(=O)(=O)c3ccc(C(=O)Nc4cc(F)ccc4F)cc32)c1 | inactive: 91% |

| Compound | survival |
| --- | --- |
| COc1ccc(NC(=O)c2nnn(CC(=O)Nc3c(C)cc(C)cc3C)c2N)cc1OC | inactive: 63% |
| CNC(=O)C(=O)NCC(c1ccc2c(c1)OCO2)N1CCOCC1 (stereo unspecified) | inactive: 113% |
| Cc1cc(C)cc(NC(=O)CSc2nc3c([nH]c4ccccc43)c(=O)n2-c2ccc(F)cc2)c1 | inactive: 118% |
| CN(CCc1ccccn1)Cc1ccccc1 | inactive: 93% |
| CCOc1ccc(-c2cc(NC(=O)c3cccc(Cl)c3)c(C(=O)OC)s2)cc1 | inactive: 81% |
| CCCOc1ccc(C(=O)Nc2nonc2-c2ccc(OCC)cc2)cc1 | inactive: 91% |
| CC(=O)N(Cc1cccnc1)Cc1cc2cc3c(cc2n2nnnc12)OCO3 | inactive: 102% |
| CC1=C(C(=O)Nc2ccccc2)C(c2ccc(C)cc2)n2nc(SCc3ccccc3C)nc2N1 (stereo unspecified) | inactive: 84% |
| O=C(c1ccc(F)cc1F)N1CCC(c2nc(-c3ccc(S(=O)(=O)N4CCCC4)cc3)no2)CC1 | inactive: 99% |
| O=C1CCCC(O)=C1C=NCc1cccnc1 | inactive: 105% |
| COc1ccc(CNC(=O)C2=C(C)C(=O)OC23CCCCC3)cc1OC | inactive: 80% |
| CCOC(=O)c1ccc(NC(=O)c2cn(-c3ccccc3)nc2-c2ccc(C)cc2)cc1 | inactive: 81% |
| O=C(C1CCN(S(=O)(=O)c2ccccc2)CC1)N1CCCCC1 | inactive: 96% |
| Cc1oc2cc3oc(=O)c(CC(=O)N4CCCCC4)c(C)c3cc2c1C | inactive: 82% |
| CC(=O)Nc1ccc(/C=C2/SC(=Nc3ccccc3)NC2=O)cc1 | inactive: 106% |
| CCCc1ccc(S(=O)(=O)N2CCC(c3nnnn3-c3ccc(OC)cc3)CC2)cc1 | inactive: 85% |
| N#CC1=C2SCN(C3CCCCC3)CN2C(=O)CC1c1ccc(Br)cc1 (stereo unspecified) | inactive: 84% |
| CCN(CC)C(=O)c1cc(-c2ccccc2)on1 | inactive: 119% |
| CCOc1cc(C#N)c(NC(=O)c2ccc(OC)c(S(=O)(=O)N3CCN(c4ccccc4)CC3)c2)cc1OCC | inactive: 116% |
| CCOC(=O)C1CCN(CC(=O)N2C(C)CCCC2C)CC1 (stereo unspecified) | inactive: 108% |
| CCCOc1ccc(CNC(=O)c2oc3ccc4c(c3c2C)C(=O)CC(C)(CC)O4)cc1 (stereo unspecified) | inactive: 70% |
| COc1ccc(CNC(=O)Cn2c(=O)c3cccn3c3ccccc32)cc1 | inactive: 84% |
| CSc1nc(-c2ccccc2Cl)nc2c1Cc1c(CO)cnc(C)c1O2 | inactive: 109% |

| Compound | survival |
| --- | --- |
| CCc1nnc2c(N3CCN(c4cccc(C(F)(F)F)c4)CC3)nc3ccccc3n12 | inactive: 120% |
| O=C1C2=C(Nc3ncnn3C2c2ccccc2)c2ccccc21 (stereo unspecified) | inactive: 114% |
| O=C(Cn1c(=O)n(Cc2ccco2)c(=O)c2oc3ccccc3c21)Nc1ccc(F)c(Cl)c1 | inactive: 23% |
| COc1ccc(N(CC(=O)N2CCc3ccccc3C2)S(=O)(=O)c2ccc(C)cc2)cc1Cl | inactive: 71% |
| COc1cccc(CNc2ncnc3onc(C)c23)c1 | inactive: 140% |
| O=C(Nc1c(C(=O)N2CCN(c3ccccc3F)CC2)oc2ccccc12)c1ccco1 | inactive: 69% |
| O=C(CSc1nc(-c2ccco2)cc(C(F)(F)F)n1)N1CCCC1 | inactive: 98% |
| CN1CCN(CCCNC(=O)c2cnn(-c3ccc(F)cc3)c2-n2cccc2)CC1 | inactive: 84% |
| CNc1ccc(-c2nc(-c3ccccc3C)no2)cc1[N+](=O)[O-] | inactive: 88% |
| c1ccc(-c2cc3ncc4c(n3n2)-c2ccccc2OC4)cc1 | inactive: 71% |
| COc1ccc(C2=C(C(C)=O)Sc3nnc(-c4ccc(Cl)cc4)n3N2C(C)=O)cc1OC | inactive: 75% |
| Cc1ccc(S(=O)(=O)c2cnc(SCC(=O)Nc3ccc4c(c3)OCCO4)[nH]c2=O)cc1Cl | inactive: 71% |
| CCCn1c2ccccc2c2cnn(CC(=O)NCCCN3CCCCC3)c(=O)c21 | inactive: 78% |
| CCOc1ccc(NC(=O)c2sc3nc4c(c(-c5ccccc5)c3c2N)C(=O)CC(C)(C)C4)cc1 | inactive: 74% |
| O=C(NCCc1ccccc1)c1ccc2nc(N3CCCCC3)sc2c1 | inactive: 81% |
| Nc1nonc1-n1nnc(C(=O)N=Nc2c(O)[nH]c3ccc(Br)cc23)c1-c1ccccc1 | inactive: 119% |
| Cc1ccccc1NC(=O)c1cn(-c2ccccc2)nc1-c1ccccc1 | inactive: 92% |
| Cc1ccccc1-c1ccnc2[nH]n(-c3ccccc3)c(=O)c12 | inactive: 78% |
| O=S(=O)(NCC(c1ccco1)N1CCOCC1)c1ccc(Br)cc1 (stereo unspecified) | inactive: 77% |
| Cc1ccc2oc(C(=O)N(Cc3ccc(N(C)C)cc3)CC3CCCO3)c(C)c2c1 (stereo unspecified) | inactive: 107% |
| CCOC(=O)c1c(NC(=O)CSc2cn(CCNC(=O)c3cccc(C(F)(F)F)c3)c3ccccc23)sc2c1CCC2 | inactive: 82% |
| COC(=O)Cn1cc(C2C(C#N)=C(N)OC3=C2C(=O)CC(C)(C)C3)c2ccccc21 (stereo unspecified) | inactive: 103% |
